Read counts are not given, so values of variants with three or more changes are uncertain.
B1: OR4K15 (parent)
chain: GUUAACGGUCAUAGGCCAUGGAAACUAGGAGCACCAUUUCGCUGCCAGUGAAGAAAUGAACAAAGAAAAUCUGGGCCAGGCAGGCAUCAAAAGAAAUAGUCUUGCGCUCAACCAGAAAGUCUGUAAUCAUUUUAAGGGUA

Variants of: B1
Experiment: self-cleavage, relative activity (ratio to wild type); higher = more cleavage; in vitro, sequencing; the parent is a self-cleaving ribozyme
Work on GUUAACGGUCAUAGGCCAUGGAAACUAGGAGCGCCAUUUCGCUGCCAGUGAAGAAAUGGGCAAAGAAAAUCUGGGCCAGGCAGGCAUCAAAAGAAAUAGUCUUGCGCUCAACCAGAAAGUCUGUAAUCAUUUUAAGGGUA yielded a self-cleavage of 0.96.
For GUUAACGGUCAUAGGCCAUGGAAACUAGGAGCGCCAUUUCGCUGCCAGUGAGGAAAUGAACAAGGAAAAUCUGGGCCAGGCAGGCACCAAAAGAAAUAGUCUUGCACUCAACCAGAAAGUCUGUAAUCAUUUUAAGGGUA, the self-cleavage was 0.02.
GUUAACGGUCAUAGGCCAUGGAAACUAGGAGCGCCUUUUCGCUGCCAGUGUAGAAAUGAACAAAGAAAAUCUGGGCCAGGCAGGCAUCAAAAGAAAUAGUCUUGCGCUCAACCAGAAAGUCUGUAAUCAUUUUAAGGGUA showed a self-cleavage of 1.21.
GUUAACGGUCAUAGGCCAUGGAAACUAGGAGCCCCAUUUCGCUGCCAGUGAAGAAAUGAACAAAGAAAACCUGGGCCAGGCAGGCAUCAAAAGAAAUAGUCUUGCGCUCAACCAGAAAGUCUGUAGUCAUUUUAAGGGUA gave a self-cleavage of 0.62.
For GUUAACGGUCAUAGGCCAUGGAAACUAGGAGCGCCAUUUCGCUGCCAGUGGAGAAAUGAACAAAGAAAAUCUGGGCCAGGCAGGCAUCAAGAGAAAUAGUCUUGCGCUCAACCAGAAAGUCUGUAAUCAUUUUAAGGGUA, the self-cleavage was 0.41.
For GUUAACGGUCAUAGGCCAUGGAAACUAGGAGCGCCAUUUCGCUGCCAGUGAAGAAGUGAACAAAGAAAAUCGGGGCCAGGCGGGCAUCAAAAGAAAUAGUCUUGCGCUCAACCAGAAAGUCUGUAAUCAUUUUAAGGGUA, the self-cleavage was 0.13.
GUUAACGGUCAUAGGCCAUGGAAACUAGGAGCGCCAUUUCGCUGCCAGUGAAGAUAUGAACUAAGAAAAUCUGGGCCAGGCAGGCAUCAAAAGAAAUAGUCUUGCGCUCAACCAGAAAGUCUGUAAUCAUUUUAAGGGUA gave a self-cleavage of 0.72.
With GUUAACGGUCAUAGGCCAUGGAAACUAGGAGCGCCAUUUCGCUGCCAGUGAAGAGAUGAACAAAGAAAAUCUGGGCCAGGCAGGCAUCAAAAGAAAUAGUCAUGCGCUCAACCAGAAAGUCUGUAAUCAUUUUAAGGGUA the self-cleavage was 0.39.
GUUAACGGUCAUAGGCCAUGGAAACUAGGAGCGCCAUUUCGCUGCCAGUGAAGAGAUGAACGAAGGAAAUCUGGGCCAGGCAGGCAUCAAAGGAAAUAGUCUUGCGCUCAACCAGAAAGUCUGCAAUCACUUUAAGGGUA showed a self-cleavage of 0.24.
For GUUAACGGUCAUAGGCCAUGGAAACUAGGAGCGCCAUUUCGCUGCCAGUGAGGAAAUGAACAGAGAAAAUCUGGGCCAGGCAGGCAUCAAAAGAAAUAGUCUUGCGCUCAACCAGAAAGUCUGUAAUCAUUUUAAGGGUA, the self-cleavage was 1.1.
GUUAACGGUCAUAGGCCAUGGAAACUAGGAGCGCCAUUUCGCUGCCAGUGAAGGAAUGAACAAAGAUAAUCUGGGCCAGGCAGGCAUCAAAAGAAAUAGUCUUGCGCUCAACCAGAAAGUCUGUAAUCAUUUUAAGGGUA gave a self-cleavage of 0.89.
With GUUAACGGUCAUAGGCCAUGGAAACUAGGAGCGCCAUUUCGCUGCCAGUGUAGAAAUGAACAAAGAAAAUCUGGGCCAGGCAGGCAUCAAAAGAAAUAGUCUUGCGCUCAACCAGAAAGUCUGUAAUCUUUUUAAGGGUA the self-cleavage was 0.21.
In the case of GUUAACGGUCAUAGGCCAUGGAAACUAGGAGCGCCAUUUCGCUGCCAGUGAGGAAAUGAACAAAGAAAAUCUGGGCCAGGCAGGCGUCUAAAGAAAUAGUCUCGCGCUCAACCAGAAAGUCUGUAAUCAUUUUAAGGGUA, the self-cleavage is reported as 0.1.
GUUAACGGUCAUAGGCCAUGGAAACUAGGAGCGCCGUUUCGCUGCCAGCGAAGAAAUGGACAAAGAAAAUCUGGGCCAGGCAGGCAUCAAAAGAAAUAGUCUUGCGCUCAACCAGAAAGUCUGUAAUCAUCUUAAGGGUA gave a self-cleavage of 0.6.
With GUUAACGGUCAUAGGCCAUGGAAACUAGGAGCGCCAUUUCGCUGCCAGUGAGGAAAUGAACAAAGAAAAUCUGGGCCAGGCAGGCCUCAAAAGAAAUAGUCUUGCGCUCAACCAGAAAGUCUGUAAUCAUUUCAAGGGUA the self-cleavage was 0.98.
For GUUAACGGUCAUAGGCCAUGGAAACUAGGAGCGCCAUUUCGCUGCCAGUGAAGAAUUGAACAAAGAAAAUCUGGGCCAGGCAGGCAUCAAAAGAGAUAGUCUUGCGCUCAACCAGAAAGUCUGUAAUCAUUUUAAGGGUA, the self-cleavage was 2.09.
For GUUAACGGUCAUAGGCCAUGGAAACUAGGAGCGCCAUUUCGCUGCCAGUGUAGAAAUGAACAAAGAAAAUCUGGGCCAGGCAGGCAUCAAAAGAAAUAGUCCUGCGCUCAACCAGAAAGUCUGUAAUCAUUUUAAGGGUA, the self-cleavage was 1.36.
Work on GUUAACGGUCAUAGGCCAUGGAAACUAGGAGCGCCAUUUCGCUGCCAGUGAAGAAGUGAACAAAGAAGAUCUGGGCCUGGCAGGCAUCAAAGGAAAUAGUCUUGCGCUCAACCAGAAAGUCUGUAAUCAUUUUAAGGGUA yielded a self-cleavage of 0.03.
In the case of GUUAACGGUCAUAGGCCAUGGAAACUAGGAGCGCCUUUUCGCUGCCAGCGAAGAAGUGAACAAAGAGAAUCUGGGCCAGGCAGGCAUCAAAAGAAAUAGUCUUGCGCUCAACCAGCAAGUCUGUAAUCAUUCUAAGGGUA, the self-cleavage is reported as 0.02.
In the case of GUUAACGGUCAUAGGCCAUGGAAACUAGGAGCGCCAUUUCGCUGCCAGUGAUGAAAUGAACAAAGAGAAUCUGGGCCAGGCAGGCAUCAGAAGAAAUAGUCUUGCGCUCAACCAGAAAGUCUGUAAUCAUUUUAAGGGUA, the self-cleavage is reported as 0.14.

Reference: the RNAGym collection of RNA variant scans (doi:10.7554/elife.90254)
